Test results published in patent publication US20110269811A1, “INHIBITORS OF SEMICARBAZIDE-SENSITIVE AMINE OXIDASE (SSAO) AND VAP-1 MEDIATED ADHESION USEFUL FOR TREATMENT AND PREVENTION OF DISEASES” (priority 2006, published 2011).

Test system: Na^+ channel (site 2)
Conditions: 10 uM Concentration of Compound I-1-Z
Experimental: For Table 4 below, the specific ligand binding to the receptors is defined as the difference between the total binding and the nonspecific binding determined in the presence of an excess of unlabelled ligand. The results are expressed as a percent inhibition of control specific binding obtained in the presence of Compound I-1-Z. The IC50 values (concentration causing a half-maximal inhibition of control specific binding) and Hill coefficients (nH) were determined by non-linear regression analysis of the competition curves using Hill equation curve fitting. The inhibition constants (Ki) were calculated from the Cheng Prusoff equation (Ki=IC50/(1+(L/KD)), where L=concentration of radioligand in the assay, and KD=affinity of the radioligand for the receptor). In each experiment, the respective reference compound was tested concurrently with Compound I-1-Z in order to assess the assay suitability.

In the case of `COc1ccc(C/C(=C/F)CN)cc1.Cl` [Compound I-1-Z, (Z)-3-Fluoro-2-(4-methoxybenzyl)-allylamine hydrochloride], the “Mean Value, percent inhibition of control specific binding: Na^+ channel (site 2)” value was 9%.
